± gives the standard deviation of the averaged measurements. Some of the results follow.
The sequences below were run on PfAP2-EXP AP2 domain (GST-tagged) (assay: gcPBM binding intensity (ln(normalized median fluorescence intensity)); higher = stronger DNA binding).
Procedure, shortened: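 An Agilent 4 × 180k array of primer-extended double-stranded 36-bp intergenic genomic probes, with negative controls, was incubated for 1 h with GST-tagged P. falciparum DNA-binding domains expressed in E. coli. Alexa488 anti-GST antibody detected bound protein, scanned at 488 nm. Binding intensity is the highest Masliner-normalised natural-log median intensity across replicate spots of either probe orientation.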

Sequence | gcPBM binding intensity (ln)
TATTTATATATTTATGCATGTTATAGGCAAAAATGT [TGCATGCA_site397] | 8.51 ± 0.42
TATATTGATGATGATAGTACGTATGAATACAAAAAA [XGTACX_site4] | 8.61 ± 0.35
AAGAGTAAAATATGGTTGCACTAAAAATATATATTT [GTGCAC_site9484] | 8.46 ± 0.39
TAAAACATATAAAGGTGTACGCCTTTTTGTATCAAT [XGTACX_site6064] | 8.42 ± 0.3
ATAATAAAAATATACTGTACATTTGTAAATTCTTTT [XGTACX_site4655] | 8.19 ± 0.32
TTATAGAGCTTATTCACACATACATATGTATTTATA [CACACA_site5775] | 8.62 ± 0.54
GTCTACTACACTAAATGTACAAGAAAAAAGAAAAAA [XGTACX_site4660] | 8.49 ± 0.41
TATATTTGTTGACACACACACAAAAAAAAAAAAAAA [CACACA_site7211] | 8.29 ± 0.48
TATAAAATTCTGACTTGTACATGTGAAAAATAATTA [XGTACX_site1396] | 8.68 ± 0.51
AAAATACAATTTCTAGCACACAAAATATTATTATAA [CACACA_site9056] | 8.34 ± 0.37
GCGTTGTTTTTAAAAAGTACATTTTTATATAAGTTA [XGTACX_site8780] | 8.61 ± 0.28
AAAGATGGAAAAAAAAATTTGTGTGTTGAAAGATAT [GTGCAC_negctrl_site19] | 8.84 ± 0.38
TATATATATATATAATGTACACATTTTTATAACTAT [XGTACX_site5714] | 9.94 ± 0.34
CTTAATATATGTGGCACACATGTGGAGTCCTATTAA [CACACA_site4281] | 8.83 ± 0.55
AAAAAAATATTAATGTGTACATAATAATAACATATA [XGTACX_site8319] | 8.61 ± 0.26
AAATAAATAAATAAATGTACACATATATATATATAT [XGTACX_site7787] | 10.2 ± 0.47
AAATATTTAAATATTATGTATGATTATATATATATA [CACACA_negctrl_site590] | 9.83 ± 0.49
TCAATAAGATTATAAAGTACTTTTGAAGATATTATA [XGTACX_site7489] | 8.28 ± 0.33
TTTCTTATTTTTTTCACACACTAAACATTTCAAATG [CACACA_site5259] | 8.77 ± 0.45

Sequence | gcPBM binding intensity (ln)
AAAGAGAACATAAGTACACACATGTTCTTTTAGTAA [CACACA_site2824] | 8.35 ± 0.4
AATAGGAAAACCTATACACACTTTAAAAAAAATATA [CACACA_site4977] | 8.28 ± 0.31
ATAAATATGTATTGCTGTACATATATATAAATTATC [XGTACX_site8411] | 8.39 ± 0.28
AAAGTAAAAACACATACATGCATATACACATATAAC [TGCATGCA_site341] | 8.98 ± 0.3
AAAAAAAAAAAAAAAACACACAAAAGCAAGAAAAAC [CACACA_site3198] | 8.81 ± 0.62
TAAAAAATTTTCGCGTGTACGCAAGAAAAAAAAAAT [XGTACX_site3058] | 8.68 ± 0.35
TTTTTGCCATATTACACACACACATGGAAACCCCCT [CACACA_site4994] | 9.76 ± 0.52
AAAAAAATAATGTATATATAAATTTATTTACATATG [GTGCAC_negctrl_site107] | 8.12 ± 0.39
TCTTTTAACAAATAATAAGCTAATTTATATTATTAT [GTGCAC_negctrl_site655] | 8.07 ± 0.42
TATATATTTAGTTAGTGTACAAGTTATTTAGTAGTT [XGTACX_site5133] | 8.54 ± 0.12
CAAATAAATTAAAGGTGTACTTTTATAGTTACGACA [XGTACX_site3926] | 8.39 ± 0.33
CATATTTTCTTGTGTACACATTTATTTTATACTATA [CACACA_site6032] | 9.22 ± 0.27
TAAAAAATAAGATATACACACATATATTTATTTATA [CACACA_site7158] | 8.09 ± 0.52
CACCCACCCAGACACACACACACACCCCCACCCATA [CACACA_site367] | 9.48 ± 0.43
ACATTTTAAATACGATGTACTTGAGTTTTTTTTAAA [XGTACX_site5833] | 8.23 ± 0.3
AATTATTTATTGAGAGTGCAACAAATTATTTCAAAT [GTGCAC_site9461] | 8.43 ± 0.3
TTTTTTTGCATGAGCAATAAAAAAGGCTTGTTCAAA [CACACA_negctrl_site1615] | 8.39 ± 0.37
TACATATATGATAAAAGTACATATAAATATACATAA [XGTACX_site3804] | 8.45 ± 0.33
GAAATAAAAGATGGTTGTACACCGTTTTCTCATATA [XGTACX_site5368] | 8.54 ± 0.27

Sequence | gcPBM binding intensity (ln)
TATATGAATAAACATTGTACGTAAATATTAACTATC [XGTACX_site543] | 8.7 ± 0.31
TATAATAATAATAATAATAATAATAATAATAATAAT [CACACA_negctrl_site905] | 8.285 ± 0.035
CGCATAAAGACAAGAACACACATATAGATTGTAGTA [CACACA_site3693] | 8.27 ± 0.49
AAAAAAAATTATATATGTACTTATTAATCCTTTTAT [XGTACX_site1387] | 8.12 ± 0.32
TTATATATTAAGAAATGTACGAAAAAAAAAATTATA [XGTACX_site3893] | 8.52 ± 0.42
AAGATGATAAAATATGTACACACAGTTTATACATTT [CACACA_site9341] | 8.21 ± 0.22
ATATTTATAATATAGAGTACTTACTAAGTTATGGGT [XGTACX_site5405] | 8.77 ± 0.28
AATGTGTAGGTAAGATAATTTTTGTTTTTTTATTTG [CACACA_negctrl_site424] | 8.42 ± 0.45
TTAAACTTGAAACACACACACACACCCATATAAAAA [CACACA_site758] | 8.61 ± 0.38
TGTAGTCTGGAGAAACGTACATAGTATCTGGTAGCT [XGTACX_site2538] | 8.59 ± 0.4
TTTTTATATATATGTATAAATATTTTTTCTATTTAT [XGTACX_negctrl_site606] | 8.4 ± 0.33
AAATTTTCTTAAGGTTGTACTTTTTGAAAATAATCT [XGTACX_site4894] | 8.26 ± 0.33
ATAAATATGTTCTGCACACAAATAAGTGTTTGAAGT [CACACA_site3892] | 8.65 ± 0.18
GAATTTCAACAAAGTAGTACATTTTATAGTAATTGG [XGTACX_site2319] | 8.29 ± 0.33
TAATGGAATAAAAATTGTACATATTTTTTTTTTTTT [XGTACX_site7669] | 8.38 ± 0.2
ACATACATACATACATACATACATACATACATACAT [XGTACX_negctrl_site315] | 9.23 ± 0.24
AACTCACGAGGACACACACACATATATATATATATA [CACACA_site4711] | 10.1 ± 0.33
TTTTTTTCTCTCTCTACACACAAGGTTTAATTTAAA [CACACA_site1690] | 8.64 ± 0.38

From the supplement of paper PMC11417369
